Test results: the supplement of paper PMC11417369
This is one part of the list.

The sequences below were run on PfHDP1 homeodomain (GST-tagged) (assay: gcPBM binding intensity (ln(normalized median fluorescence intensity)); higher = stronger DNA binding).
In short: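 Binding of GST-tagged P. falciparum DNA-binding domains, expressed in E. coli and used at about 25 μg on average, was carried out for 1 h in 1× PBS containing 1% milk, 0.2 mg/ml BSA, 0.5% salmon testes DNA and 0.03% Triton X-100. The target was an Agilent 4 × 180k array of primer-extended double-stranded 36-bp intergenic genomic probes plus negative controls, read with Alexa488 anti-GST antibody at 488 nm. Binding intensity is the highest Masliner-normalised natural-log median intensity across replicate spots of either probe orientation.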
In the case of “TAAATATAGGGTAATAGTACATAATTATATTCTTTT [XGTACX_site3883]”, the “gcPBM binding intensity (ln)” value was 6.28.
With TATATTTATATATTAGTGCACTTTTTGTTAATTTTT the “gcPBM binding intensity (ln)” value was 10.3.
For “TACATATTTGTATATGCACACATAAATTTTTCCATT [CACACA_site9148]”, the “gcPBM binding intensity (ln)” value was 9.69.
“AAATATTTATACCACACACACATACCTCTATTTGTA [CACACA_site6957]” was tested, and the “gcPBM binding intensity (ln)” value was 6.61.
With “AAATAAAATCATGAATGTACACAAAAATTATTGCAA [XGTACX_site5691]” the “gcPBM binding intensity (ln)” value was 6.99.
“TTTGAAGGAAGGGGGGGAGGGGCCATAACAAAGGAA [GTGCAC_negctrl_site408]” was tested, and the “gcPBM binding intensity (ln)” value was 8.09.
With “TATTTTAGAGAAAAAAATAAATTACAAAATGTTAGG [CACACA_negctrl_site1645]” the “gcPBM binding intensity (ln)” value was 6.2.
With “ACTGTACTATAAAATACACACATATAAATATAAATA [CACACA_site3009]” the “gcPBM binding intensity (ln)” value was 6.69.
For “TTAAATATCCATATTTCACACATTTCGATATATATA [CACACA_site4208]”, the “gcPBM binding intensity (ln)” value was 6.31.
In the case of “GAATGTAAATATTAAAGTACACAGAATATATCTTCA [XGTACX_site8149]”, the “gcPBM binding intensity (ln)” value was 6.4.
In the case of “TATAATATTATATAATGTACGCATTTATTATTTAAA [XGTACX_site8326]”, the “gcPBM binding intensity (ln)” value was 6.28.
For “ATAATGTCATAATTATATCCTTTGGCATAAAATAAA [XGTACX_negctrl_site574]”, the “gcPBM binding intensity (ln)” value was 6.
In the case of “CCTAAATAAATGGACACACACATATTTATATTTATA [CACACA_site6789]”, the “gcPBM binding intensity (ln)” value was 6.44.
For “TATTTGTATATTCATTCCTGTATTCCCTTTTTTGTA [CACACA_negctrl_site1236]”, the “gcPBM binding intensity (ln)” value was 6.73.
In the case of “TGTACGTTTTTTAACACACACACAAAAAAAAAAAAA [CACACA_site6006]”, the “gcPBM binding intensity (ln)” value was 6.46.
With “ATATATATATATGTATGTACATAATATTTTTTTTAT [XGTACX_site5551]” the “gcPBM binding intensity (ln)” value was 8.98.
In the case of “AAAAAAAAAAAAAATACACACAAATAATAAAAATAA [CACACA_site1431]”, the “gcPBM binding intensity (ln)” value was 6.48.
For “ATACCATATAATTATGTGAGAAAATATAATATTCAT [CACACA_negctrl_site310]”, the “gcPBM binding intensity (ln)” value was 6.55.
For “ATTTTCTTAAATAAATGTACATGGCATTAAAAGTAA [XGTACX_site5119]”, the “gcPBM binding intensity (ln)” value was 6.64.
In the case of “AAAAAAGATATATAAACACACATATTTATATACACA [CACACA_site6866]”, the “gcPBM binding intensity (ln)” value was 6.24.
In the case of “GATAGACACGTGCACACATGCAATACTTTATTCAGT [TGCATGCA_site778]”, the “gcPBM binding intensity (ln)” value was 10.
“ATAAATAACTTTTAAATACACACGTAAAATATATTG [CACACA_site3302]” was tested, and the “gcPBM binding intensity (ln)” value was 6.58.
For “ATTTATATTATGAGGAGTACAATACTTATAGATGTA [XGTACX_site7510]”, the “gcPBM binding intensity (ln)” value was 6.44.
In the case of “TATATACGTAATAGTAGTACTTTAAAATGCGGAAAT [XGTACX_site4597]”, the “gcPBM binding intensity (ln)” value was 7.02.
